Assay results reported in PubChem BioAssay AID652104 (National Center for Advancing Translational Sciences (NCATS), 2013).
The campaign covered roughly 410,000 compounds. About 7,200 (1.8%) were called active. The inconclusive results got no clear call from the source; some entries with a clear call stand among them for comparison. Calls come from the whole dose curve; as a rule, active = well fitted activation curve with a large enough effect; inconclusive = small, poorly fitted or top-dose-only effect, or another doubt; inactive = no such curve, though single readings can be large or run the other way. Where the call is inconclusive, the potency comes from a doubtful curve fit.

Experiment: qHTS of TDP-43 Inhibitors; note: nearly all actives have a fitted effect of over 50% in size; for growth rescue (activation): % of control where 0% means no effect
Conditions: TDP-43 expressing yeast growth rescue, BacTiter-Glo, 24 h; growth rescue (activation): at 46.1 µM (top of the series) unless noted
Procedure, shortened: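 Luminescence from BacTiter-Glo reports growth of TDP-43-expressing yeast after 24 hr at 30 deg C with compound. Cells were raffinose-pregrown to mid-log, then seeded in galactose medium at OD600=0.02.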
Potency is the fitted concentration of half-maximal effect; tags give direction and shape of the fitted curve.

Potency, active:
CC1CCN(c2c([N+](=O)[O-])nn(-c3ccc4c(c3)OCCO4)[n+]2[O-])CC1 12.6 µM, O=Cc1ccc(N2Cc3ccccc3C2)cc1 3.16 µM, COc1ccc(Nc2nnc(SCC3CCCO3)s2)cc1 (configuration not stated) 28.2 µM, Cc1nc2sc(C(N)=O)c(N)c2c(-c2ccc(Br)cc2)c1C(=O)Nc1ccc(Cl)cc1 22.4 µM, COc1ccccc1-c1cc(C(F)(F)F)nc(S(C)(=O)=O)n1 35.5 µM, Cc1ccc(C(=O)O/N=C(\N)c2ccccn2)cc1Cl 7.08 µM, Nn1cnc2c(c1=O)C1(CCCCC1)Cc1ccccc1-2 10 µM, Fc1ccc(Cn2c(-c3cccc(Br)c3)nc3ccccc32)cc1 22.4 µM, CCc1ccccc1Nc1nc2ccccc2n2cnnc12 12.6 µM

Potency, inconclusive:
CCOC(=O)c1c(-c2ccc(C)o2)csc1NC(=O)CN1CCOCC1 15.8 µM [activator, single point], COC(=O)c1ccccc1NC(=O)CSc1nncn1-c1ccccn1 6.31 µM [activator, single point], CC(OC(=O)c1cccc([N+](=O)[O-])c1)C(=O)N1CCc2ccccc21 (configuration not stated) 0.794 µM [activator, full curve, poor fit], COc1cccc(C(=O)NCCSc2ccc(Br)cc2)c1 11.2 µM [activator, partial curve], Cc1ccccc1C(=O)Nc1ccc2c(c1)CCCN2C(=O)c1cccs1 25.1 µM [activator, partial curve], Cc1cc(C)n2c(SCC(=O)Nc3cc(S(=O)(=O)N(C)C)ccc3C)nnc2n1 31.6 µM [activator, single point], Cc1ccc(C(=O)Nc2onc3c2CCCC3)cc1 11.2 µM [activator, partial curve, poor fit], O=C(CSc1nnc2ccc3ccccc3n12)c1ccc(F)cc1 35.5 µM [activator, partial curve], COc1cccc2sc(=NC(=O)CS(=O)(=O)c3ccccc3)n(C)c12 0.891 µM [activator, full curve, poor fit], COC(=O)c1c(C)nsc1NC(=O)Oc1ccccc1 12.6 µM [activator, partial curve], O=c1oc(=S)oc2c1[C@H](c1ccc(Cl)cc1)O[C@H](C1CC1)C2 8.91 µM [activator, partial curve], O=C(/C=C/c1ccc2c(c1)OCO2)c1ccc[nH]1 4.47 µM [activator, partial curve], NC(=O)c1ccc(C23CC4CC(CC(C4)C2)C3)o1 17.8 µM [activator, partial curve, poor fit], O=C(Cc1cccc(NC(=O)C2CCCN(C(=O)C3CC3)C2)c1)Nc1cccc(C(=O)N2CCOCC2)c1 (configuration not stated) 3.16 µM [activator, partial curve], O=S(=O)(c1ccccc1)n1ccc2ccccc21 15.8 µM [activator, partial curve], CC(=O)Cn1cnc2scc(-c3ccc(C)c(C)c3)c2c1=O 14.1 µM [activator, single point], Fc1ccc(Nc2cncc(-c3ccsc3)c2)cc1Cl 35.5 µM [activator, partial curve], CS(=O)(=O)c1nc(-c2ccc(Br)cc2)cc(-c2ccccc2)c1C#N 6.31 µM [activator, partial curve, poor fit], COc1ccccc1N(CC(=O)NCCSCc1ccccc1)S(=O)(=O)c1ccccc1 2.82 µM [activator, partial curve], Cc1ccc(CCNC(=O)c2ccc3nc4ccccc4c(=O)n3c2)cc1 15.8 µM [activator, partial curve], CCOc1ccc(CCNC(=O)c2cc3sccc3n2C)cc1OCC 3.16 µM [activator, single point], Cc1ccc(-c2nnc(CSc3nnc(COc4ccccc4)n3-c3ccc(C)cc3)o2)cc1 0.501 µM [activator, full curve, poor fit], CC(NC(=O)CNC(=O)C1O[C@@H]2OC(C)(C)O[C@@H]2[C@H]2OC(C)(C)O[C@@H]12)C(=O)O (some centres not stated) 6.31 µM [activator, partial curve], Cc1oc(CC(C)C)cc1C(=O)Nc1ccc(C(=O)O)cc1 20 µM [activator, single point], Cc1ccc(-n2nnnc2CNC(=O)c2ccc3c(c2)OCO3)cc1C 11.2 µM [activator, partial curve], CC(=O)N1CCc2cc3nc(C)cc(C)c3cc21 31.6 µM [activator, single point], COc1ccc(C(=O)Nc2noc3ccccc23)cc1 0.562 µM [activator, full curve, poor fit], Cc1cccc(NC(=O)CSc2nccn2-c2cccc(Cl)c2)c1C 12.6 µM [activator, partial curve, poor fit], C=CCn1c(C23CC4CC(CC(C4)C2)C3)n[nH]c1=S 12.6 µM [activator, single point], Cc1nn2c(C)c(C(=O)NCC(C)c3ccccc3)cnc2c1-c1ccccc1 (configuration not stated) 11.2 µM [activator, partial curve], CC(=O)NC(c1cccc(F)c1)c1nc(-c2csc3ccccc23)cs1 (configuration not stated) 35.5 µM [activator, single point], CCOc1ccc(Nc2cc(C)nc(-n3nc(C)cc3C)n2)cc1 10 µM [activator, single point], O=C(Cn1nnc(-c2ccccc2NC(=O)c2ccccc2)n1)Nc1ccc2c(c1)OCCO2 1 µM [activator, full curve, poor fit], NC(=O)c1ccc(C(F)(F)F)n(Cc2ccccc2Cl)c1=O 10 µM [activator, partial curve], C=CCc1c(OC)ccc2c1c(S(=O)(=O)c1ccc(C)cc1)cn2COC 31.6 µM [activator, single point], CC12CCC3C(CCC4CC(O)CCC43C)C1CC(O)C2 (configuration not stated) 35.5 µM [activator, single point], Clc1ccc(OC2CCN(Cc3nc(CC4CC4)no3)CC2)cc1 15.8 µM [activator, single point], COc1ccc(CNC(=O)C2CC(c3cccc([N+](=O)[O-])c3)=NO2)cc1 (configuration not stated) 35.5 µM [activator, single point], Cc1ccccc1NCC(=O)N/N=C/c1c[nH]c2ccccc12 35.5 µM [activator, single point], Cc1cc(C(=O)NC2CCCc3ccccc32)ccc1[N+](=O)[O-] (configuration not stated) 12.6 µM [activator, partial curve], O=C(CSCc1c(F)cccc1Cl)NCCc1ccccc1 17.8 µM [activator, single point], CCC(=O)NC(=S)NNC(=O)c1ccc([N+](=O)[O-])cc1 12.6 µM [activator, partial curve]

Growth rescue (activation), inconclusive:
O=C(O)/C=C/C(=O)c1ccc2c(c1)CCc1ccccc1-2 -93.8% [activator]

Growth rescue (activation), inactive:
CCCCN1CC(C(=O)NCc2ccc(C)cc2)CC1=O (configuration not stated) -20%, COCCNC(=O)CCN1C(=O)c2cccnc2Oc2ccc(C)cc21 1.78%, COc1ccc(C(=O)N2CCC(c3nc(-c4ccc(S(=O)(=O)N5CCCC5)cc4)no3)CC2)cc1 25.3%, Cc1cccc(NC(=O)C2CCN(S(=O)(=O)c3c(C)nn(C)c3C)CC2)n1 13.7%, O=C(Nc1ccccc1)N1CCC(c2ccccc2)C1 (configuration not stated) 27.5%, CC(OC(=O)c1ccc2ccccc2c1)C(=O)N(C)Cc1ccccc1 (configuration not stated) 25.7%, CC(=O)Nc1nonc1-c1nnc(SCC(=O)Nc2ccc(C)c(Cl)c2)n1-c1ccccc1 25% [at 9.22 µM], COc1ccc(C(=O)NCC(=O)OCC(=O)c2ccccc2Br)cc1OC 7.63%, O=C(CN1CCN(Cc2ccc(Cl)cc2)CC1)N1CCc2ccccc21 1.8%, CCOC(=O)c1cc(C(C)(C)C)oc1CNC(=O)c1c(C)oc2c1CCCC2 4.8%, COc1cccc(Cn2c(NCc3ccc(C)cc3)nc3c2c(=O)n(C)c(=O)n3C)c1 0%, CCC(=O)Nc1nonc1-c1nc2ccccc2n1Cc1ccccc1 9.81%, Cc1ccc(S(=O)(=O)c2nc(-c3ccco3)oc2SCC(=O)Nc2ccc(F)cc2)cc1 25%, CCN1CCN(CC(=O)n2c3c(c4ccccc42)CC(C)CC3)CC1 (configuration not stated) -10.7%, COc1ccc(C(=O)NCc2cccs2)cc1S(=O)(=O)N1CCOCC1 -7.94%, CCC(=O)N1CCc2cc(S(=O)(=O)NC(CC(C)C)C(=O)NCc3ccc(F)cc3)ccc21 (configuration not stated) 10.6%, Cc1ccc(NC(=O)c2sc(-n3nc(C)c(Cc4ccc5c(c4)OCO5)c3C)nc2C)cc1C -22.5%, O=c1c2ccccc2nnn1Cc1ccccn1 -11%, Cc1ccc(N2CCN(c3ccc([N+](=O)[O-])cn3)CC2)c(C)c1 16.3%, O=C(CSc1ccc2c(c1)OCCO2)NCCN1C(=O)CSC1=O 11.3%
